Experimental data from PMC7819943, “Rice protein-binding microarrays: a tool to detect cis-acting elements near promoter regions in rice”.
The other results are listed elsewhere or left out.

target: T1, OsWOX13 (Oryza sativa, UniProt Q5QMM3 1-267); experiment: protein-binding microarray (RPBM); PBS, 2% BSA, 51.3 ng/ul salmon testes DNA, 50 uM zinc acetate, 200 nM TF, 25 C, 1 h; high values mean tight binding; details: protein: recombinant; tags: N-terminal polyhistidine and DsRed monomer fusion (pET32a); label: CyDye5-dUTP incorporated in the synthesized complementary strand; 3' TTTTT single-stranded linker to array surface; dsDNA, one strand shown
T1 sequence: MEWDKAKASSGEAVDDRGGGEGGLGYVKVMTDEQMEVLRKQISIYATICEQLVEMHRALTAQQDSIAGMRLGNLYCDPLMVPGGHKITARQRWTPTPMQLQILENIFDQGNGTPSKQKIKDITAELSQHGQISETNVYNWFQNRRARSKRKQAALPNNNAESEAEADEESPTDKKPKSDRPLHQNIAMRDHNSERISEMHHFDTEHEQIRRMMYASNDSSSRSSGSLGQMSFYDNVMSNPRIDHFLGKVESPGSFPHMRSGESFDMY
Outline: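 A custom Agilent array was converted to double-stranded form by primer extension with Cy5-dUTP and blocked with 2% BSA. Protein at 200 nM in PBS with 2% BSA, salmon testes DNA and 50 µM zinc acetate was applied for 1 h at 25 °C, followed by washing. The proteins were polyhistidine–DsRed N-terminal fusions of transcription factors, expressed in E. coli BL21-CodonPlus and Ni–NTA-purified. The binding signal is per-feature fluorescence intensity (arbitrary units) from an Axon 4000B scanner.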

| Sequence | binding signal |
| --- | --- |
| CATAACTCAATCACCGTGAGCACTGCAAGAGAGTTGTGCGCGGAGTCACCTAGTGCAG | 16600 fluorescence intensity (a.u.) |
| ATTTAGACATATCAATGAAATGCTGTTGATCAAGTTTCTACGGAGTCACCTAGTGCAG | 3810 fluorescence intensity (a.u.) |
| ATCCAAATAAATTGGCCTATTAGCTCAGCTGGTTAGAGCGCGGAGTCACCTAGTGCAG | 20000 fluorescence intensity (a.u.) |
| TTTCTTTTAAATTACTTATCCAAATCATGATCCGGTTGCACGGAGTCACCTAGTGCAG | 5900 fluorescence intensity (a.u.) |
| TGCTAGCTAGCATAATTGACTTGCTACTATATATATGAACCGGAGTCACCTAGTGCAG | 3310 fluorescence intensity (a.u.) |
| ACATAATGGGCCAAATGACACAAGCCATTTTGACGTGCGTCGGAGTCACCTAGTGCAG | 5510 fluorescence intensity (a.u.) |
| GACCAGATTGGTATTGTTGAGTTAAATCATATATTTACCCCGGAGTCACCTAGTGCAG | 19600 fluorescence intensity (a.u.) |
| AGCATGATGCCCATCAGAGGTTGATTGGTCCCTGCACAAACGGAGTCACCTAGTGCAG | 14900 fluorescence intensity (a.u.) |
| CAGTGGATTGATGTATTATTGTCATCCAAATCATGCCATTCGGAGTCACCTAGTGCAG | 47700 fluorescence intensity (a.u.) |
| GTGATTGAGGCCCTGTTCAGATGGGAAACTTTTAAGTCCCCGGAGTCACCTAGTGCAG | 35800 fluorescence intensity (a.u.) |
| AGAAAATTGAGGTTTATTTATTTAATATCGTTCATGTAATCGGAGTCACCTAGTGCAG | 10100 fluorescence intensity (a.u.) |
| CTTAATTTATGCTATTTTAGGCAATAATACCTTATATACCCGGAGTCACCTAGTGCAG | 24100 fluorescence intensity (a.u.) |
| ATTAATGTTAAATTTAATGAAACTAATTTGATATTATAAACGGAGTCACCTAGTGCAG | 9540 fluorescence intensity (a.u.) |
| GTTGGCTCGCCATTCCAGAGCTCGAGGTGGAGATCGCGGGCGGAGTCACCTAGTGCAG | 17600 fluorescence intensity (a.u.) |
| TCAAATTTACACATCTAAAGTTTAGAGACCCAAAGTTTATCGGAGTCACCTAGTGCAG | 3510 fluorescence intensity (a.u.) |
| ATGTTTGAAAATTAATTTAGAGTAATAAACATAGACTACACGGAGTCACCTAGTGCAG | 18300 fluorescence intensity (a.u.) |
| GGCTAAATTACCACCCTAACTCGATTCGAAGCGGTTTTCACGGAGTCACCTAGTGCAG | 20700 fluorescence intensity (a.u.) |
| CAAATTTTCAAGTTGATGGATCACAAAGTGAGTGAGTAAGCGGAGTCACCTAGTGCAG | 4290 fluorescence intensity (a.u.) |
| TTCTGATGGAGAGTTTTCTGAATAGAGGCCTCGGACTTCACGGAGTCACCTAGTGCAG | 5390 fluorescence intensity (a.u.) |
| CTACTTATACTGACAAATTATGGCATGACTAAAATTTGGCCGGAGTCACCTAGTGCAG | 11300 fluorescence intensity (a.u.) |
| ATTTGATTAGAAAATGAAACGACTTATAATAGTCCATCCGCGGAGTCACCTAGTGCAG | 43700 fluorescence intensity (a.u.) |
| TACCTGTTCTCACAATATGGATTGACATCTGTTCATATATCGGAGTCACCTAGTGCAG | 3290 fluorescence intensity (a.u.) |
| ATAGCATCCAATTAGATTGTTGACATCCGGTTGAATAGAACGGAGTCACCTAGTGCAG | 9070 fluorescence intensity (a.u.) |
| ATGGTCCCTCTGGCTCGTTAATTGATGAGACAAGTATAGCCGGAGTCACCTAGTGCAG | 15500 fluorescence intensity (a.u.) |
| TAGTTATAACACCAATCAAATAAATACTGTAAAACTAATACGGAGTCACCTAGTGCAG | 7010 fluorescence intensity (a.u.) |
| CCTGGTTTGATGGACTCTTATTATTTTATCTCGTGCTCATCGGAGTCACCTAGTGCAG | 4370 fluorescence intensity (a.u.) |
| GCGGTGGTATAATCATCATTTAGAAGTGACTAAACCCATTCGGAGTCACCTAGTGCAG | 3340 fluorescence intensity (a.u.) |

| Sequence | binding signal |
| --- | --- |
| TTCTTTAATTTGTAGGAATAACATTATGGAGGACTTTAATCGGAGTCACCTAGTGCAG | 11600 fluorescence intensity (a.u.) |
| GCTGATTACTACTCCTTTTGTTATGTTTTCCTCCTCCTCTCGGAGTCACCTAGTGCAG | 40600 fluorescence intensity (a.u.) |
| TCGGATTGATCGTCAAATTAAGGGACATCAAATGAACTTACGGAGTCACCTAGTGCAG | 25100 fluorescence intensity (a.u.) |
| TTTATAACATTGTTAATTGATTAGGCATGCAATGCCATATCGGAGTCACCTAGTGCAG | 32300 fluorescence intensity (a.u.) |
| CCGCATTGGTGGTAATTAGATTTGGTACTACCACTGTCCCCGGAGTCACCTAGTGCAG | 9050 fluorescence intensity (a.u.) |
| CATTGATGAACTTGACTTAATTAACGTGCACGTACCTTAACGGAGTCACCTAGTGCAG | 14500 fluorescence intensity (a.u.) |
| AATGATGATATAATTAATACGTAGAAGATGTTTGCTGGAACGGAGTCACCTAGTGCAG | 40900 fluorescence intensity (a.u.) |
| GACATGATAGCGCAAAATTTGACAGCATTGTCCATTTCCACGGAGTCACCTAGTGCAG | 8060 fluorescence intensity (a.u.) |
| TGGATAATTACGGGGATGCATCCCGAAATCCAGCGTGAAACGGAGTCACCTAGTGCAG | 6590 fluorescence intensity (a.u.) |
| CACACTGATTAACACTGCACATGCATTATTATATATTCGACGGAGTCACCTAGTGCAG | 15100 fluorescence intensity (a.u.) |
| GATTCGATGGGTTGTTGATTGGAGGAGAGCCTCGGGAGGGCGGAGTCACCTAGTGCAG | 17300 fluorescence intensity (a.u.) |
| AAATCAATTACTAGTGCGCGGTTTGTTGAGGAAAAGGCAACGGAGTCACCTAGTGCAG | 6960 fluorescence intensity (a.u.) |
| CATGACTGCATCGATCTATTCAACAGCTATAAATCCGAGGCGGAGTCACCTAGTGCAG | 7400 fluorescence intensity (a.u.) |
| TAAAATTGACATATAAAATCTCAACACCCTAGTTTCACTCCGGAGTCACCTAGTGCAG | 34200 fluorescence intensity (a.u.) |
| AAAATTATTAACTTCTTGTTTCGATCACCCTAATAAATAGCGGAGTCACCTAGTGCAG | 4280 fluorescence intensity (a.u.) |
| CCATCAAATATAAATTAGCATCACATAAAAGTACTTCAAACGGAGTCACCTAGTGCAG | 8000 fluorescence intensity (a.u.) |
| GTAACAGTTAATGCTAAAATGATAGTAGCATGATATCGTACGGAGTCACCTAGTGCAG | 4570 fluorescence intensity (a.u.) |
| AAGAACAGATCGCATCAATCAAACCGCCGGATCAAACCGGCGGAGTCACCTAGTGCAG | 4400 fluorescence intensity (a.u.) |
| AATCTAATGGGCAAGAGACTGGCTAAGCCCAGTACGCGGCCGGAGTCACCTAGTGCAG | 4240 fluorescence intensity (a.u.) |
| TCAAAATTAGAAGTTTGAAGAAATTGGAACGATGTGATGGCGGAGTCACCTAGTGCAG | 7940 fluorescence intensity (a.u.) |
| ACGTGATAGCGGATCACAAAATTTTAAATGTTTCGTTGACCGGAGTCACCTAGTGCAG | 5590 fluorescence intensity (a.u.) |
| AATCCAAGAAATCAATCAATCACGCAACTGCATCATGATACGGAGTCACCTAGTGCAG | 29400 fluorescence intensity (a.u.) |
| TAAATTTGTGATAAAACAAATTATCGAATGTTTTAGTATTCGGAGTCACCTAGTGCAG | 5290 fluorescence intensity (a.u.) |
| ATCCACCAATCACATACTAAGCTTGTTTCTTACCATACGGCGGAGTCACCTAGTGCAG | 17000 fluorescence intensity (a.u.) |
| CCATTTGATTTTGAATTCGCCAAGAGCCAGCAACAGCGCCCGGAGTCACCTAGTGCAG | 5030 fluorescence intensity (a.u.) |
| GTTACCATGTGACTATCAATTGATAGGTCTCACTAAAAGACGGAGTCACCTAGTGCAG | 5930 fluorescence intensity (a.u.) |
| GTTGAGGGGATGGGATGGGATGGGATGGGACGAACTCACTCGGAGTCACCTAGTGCAG | 4920 fluorescence intensity (a.u.) |
